Reference: PubChem BioAssay AID485281 (National Center for Advancing Translational Sciences (NCATS), 2010)
Hit rate of the full screen: of about 350,000 compounds, about 260 (0.074%) were called active. The inconclusive results got no clear call from the source; some entries with a clear call stand among them for comparison. The call rests on the fitted dose curve; in most records, active means well fitted inhibition curve with a large enough effect; inconclusive means small, poorly fitted or top-dose-only effect; inactive means no such curve, though single readings can be large or run the other way. Potencies beside an inconclusive call are fits to weak or partial responses and may not hold up.

Target: Ferritin light chain (Equus caballus) (UniProt P02791)
Chain of UniProt P02791 (P02791 whole entry, looked up): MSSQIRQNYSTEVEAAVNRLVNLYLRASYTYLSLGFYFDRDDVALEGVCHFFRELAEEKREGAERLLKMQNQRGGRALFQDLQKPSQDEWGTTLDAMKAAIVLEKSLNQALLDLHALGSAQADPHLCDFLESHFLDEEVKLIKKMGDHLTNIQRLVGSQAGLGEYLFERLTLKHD
Experiment: qHTS Assay for Identification of Novel General Anesthetics; further: nearly all actives have a fitted effect of over 20% in size
Details: apoferritin/1-aminoanthracene competitive binding, fluorescence; series mostly up to 77.5 µM
Summary of the method: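 Horse-spleen apoferritin (10 uM) in 50% saturated 1-aminoanthracene in PBS was incubated 10 min at room temperature with compound. Fluorescence (ex 380, em 535 nm) was normalized to free and bound 1-AMA, with concentration-response fitted by a four-parameter Hill equation.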
Potency means the concentration at half of the fitted maximal effect; tags describe the fitted curve by direction and shape.

| SMILES | Potency |
| --- | --- |
| CCCNC(=O)C1CCC(Cn2c(=O)c3sccc3n(CC(=O)NCc3cccc(OC)c3OC)c2=O)CC1 (stereo not given) | inactive |
| Cc1cc(SCC(=O)NC(=O)NCc2ccco2)nc2c(C)cccc12 | inconclusive: 28.2 µM [inhibitor, partial curve] |
| COc1ccc(OC)c(NS(=O)(=O)c2ccc(N3CCCCS3(=O)=O)cc2)c1 | inactive |
| c1ccc(-c2ccc(OCCOCCn3cncn3)cc2)cc1 | inactive |
| C=CCOc1c(Br)cc(CNc2ccc(NC(=O)C(C)C)c(OC)c2)cc1OC | inconclusive: 35.5 µM [inhibitor, partial curve] |
| O=C(CN1C(=O)C2C3CCC(C3)C2C1=O)OCC(=O)c1ccc(Br)cc1 (stereo not given) | inconclusive: 22.4 µM [inhibitor, partial curve] |
| O=C(Cc1ccccc1)NC(=S)Nc1ccc(N2CCCCC2)cc1 | inconclusive: 31.6 µM [inhibitor, partial curve] |
| COc1ccc(NC(=O)c2ccco2)cc1NC(=O)c1cc(OC)c(OC)c(OC)c1 | inactive |
| O=C1C(Cl)=C(NCC2CCCO2)C(=O)N1c1cccc(Cl)c1Cl (stereo not given) | inactive |
| COc1ccc(-c2onc(C)c2C)cc1S(=O)(=O)N(C)Cc1ccccc1 | inactive |
| Cn1nc(C(C)(C)C)c([N+](=O)[O-])c1C(=O)Nc1cccc2ccccc12 | inconclusive: 35.5 µM [inhibitor, partial curve, poor fit] |
| O=C(NCc1ccc(F)cc1)C(=O)c1cn(CC(=O)N2CCCC2)c2ccccc12 | inconclusive: 50.1 µM [inhibitor, single point] |
| CCOC(=O)Cn1c(=O)n(C2CCCCC2)c2nc(-c3c(F)cccc3Cl)nc(C(N)=O)c21 | inconclusive: 8.91 µM [inhibitor, partial curve] |
| Oc1c(C(c2ccco2)N2CCN(C(c3ccccc3)c3ccccc3)CC2)sc2ncnn12 (stereo not given) | inconclusive: 8.91 µM [inhibitor, partial curve] |
| COc1ccc(N=N/C(=C\O)C(=O)c2cccs2)cc1 | inconclusive: 22.4 µM [inhibitor, partial curve] |
| N#Cc1nc(COc2ccc(Cl)cc2)oc1NCc1ccc2c(c1)OCO2 | inconclusive: 3.16 µM [inhibitor, partial curve] |
| c1ccc2c(c1)ccc1nnc(SCc3ccc4c(c3)OCCO4)n12 | inactive |
| COc1cccc2sc(N(C)c3ccccc3)nc12 | inconclusive: 50.1 µM [inhibitor, single point] |
| COc1ccc(CNc2ccc(Br)cc2)cc1 | inconclusive: 12.6 µM [inhibitor, partial curve] |
| Cc1ccc2occ(C(c3nnnn3C3CCCC3)N3CCN(C(=O)c4ccco4)CC3)c(=O)c2c1 (stereo not given) | inconclusive: 7.08 µM [inhibitor, full curve, poor fit] |
| CCOc1ccc(OCCC(=O)OC(C)C(=O)Nc2ccc(C(C)=O)cc2)cc1 (stereo not given) | inconclusive: 28.2 µM [inhibitor, partial curve] |
| COc1cc(OC)c2ccc(=O)oc2c1C(CCN1CCCC(C)C1)c1ccc(N(C)C)cc1 (stereo not given) | inconclusive: 17.8 µM [inhibitor, partial curve] |
| COc1ccccc1NC(=O)c1cc2ccccc2o/c1=N\O | inconclusive: 39.8 µM [inhibitor, single point] |
| COc1ccc(NC(=O)NC(C)(C(F)(F)F)C(F)(F)F)cc1 | inactive |

| SMILES | Potency |
| --- | --- |
| Cc1ccc(NC(=S)NC(NC(=O)c2ccccc2C)C(Cl)(Cl)Cl)c(C)c1 (stereo not given) | inconclusive: 11.2 µM [inhibitor, full curve, poor fit] |
| O=C(OCc1ccc(Cl)c(Cl)c1)c1ccc[nH]1 | inconclusive: 50.1 µM [inhibitor, single point] |
| Cc1ccc(S(=O)(=O)Nc2ccc3nc(-c4ccc(F)cc4)oc3c2)cc1 | inconclusive: 4.47 µM [inhibitor, full curve, poor fit] |
| CCOc1ccc(C2=Cc3cc(OC)c(OC)cc3C(=C(Cl)Cl)O2)cc1 | inconclusive: 50.1 µM [inhibitor, single point] |
| CCOC(=O)c1c(C)[nH]c(C)c1S(=O)(=O)N(C)CC(=O)Nc1ccc(CC)cc1 | inconclusive: 17.8 µM [inhibitor, partial curve] |
| Cc1cc(-c2ccc([N+](=O)[O-])cc2)nc2ccccc12 | inconclusive: 35.5 µM [inhibitor, partial curve] |
| CCC(C)(C)NC(=O)c1ccc(Sc2nncn2C)c([N+](=O)[O-])c1 | inactive |
| COc1cccc(CNC(=O)c2cccc(S(=O)(=O)N3CCN(C)CC3)c2)c1 | inactive |
| c1ccc(-c2nc(NCCCn3ccnc3)c3oc4ccccc4c3n2)cc1 | inactive |
| CC(C)c1nnc(NC(=O)CCCCCN2C(=O)C3C4C=CC(C4)C3C2=O)s1 (stereo not given) | inconclusive: 44.7 µM [inhibitor, single point] |
| Cc1cc(C)c2c(CC(=O)N(Cc3ccc(Cl)cc3)Cc3ccco3)coc2c1 | inactive |
| Cc1n[nH]c(=O)n1-c1ccc(Oc2ccccc2)cc1 | inconclusive: 44.7 µM [inhibitor, single point] |
| O=C(Nc1ccccc1)c1nc[nH]c1C(=O)O | inactive |
| O=S(=O)(c1cccs1)n1cccn1 | inconclusive: 14.1 µM [inhibitor, partial curve] |
| Cc1ccc(N2C(=O)C3C4C=CC(C4)C3C2=O)cc1 (stereo not given) | inconclusive: 11.2 µM [inhibitor, partial curve] |
| CCc1nnc(NC(=O)c2ccc3c(c2)C(=O)N(C(C)(C)C)C3=O)s1 | inactive |
| Cc1c(Cl)cccc1NC(=O)NC1CCCCC1 | inactive |
| O=C(/C=C/c1ccccc1)c1ccccc1O | inconclusive: 50.1 µM [inhibitor, single point] |
| N#Cc1c(-n2ncnc2-c2ccc(F)cc2)sc2c1CCCCC2 | inconclusive: 20 µM [inhibitor, partial curve] |
| O=C(Nc1ccccc1Cl)c1ccc([N+](=O)[O-])o1 | inactive |
| COc1ccc(CC(=O)N2CC3(C)CC2CC(C)(C)C3)cc1OC (stereo not given) | inconclusive: 25.1 µM [inhibitor, partial curve] |
| O=C(Nc1cccnc1)c1ccc(Cl)c(S(=O)(=O)N2CCCCCC2)c1 | inconclusive: 31.6 µM [inhibitor, partial curve] |
| CC(=O)N(c1nnc(-c2cccc(C)c2)s1)C1CCCC1 | inconclusive: 31.6 µM [inhibitor, partial curve] |
| Cc1nn(C)cc1CN(C)C(=O)c1sc2cccc(Cl)c2c1Cl | inconclusive: 31.6 µM [inhibitor, partial curve] |

| SMILES | Potency |
| --- | --- |
| Nc1n[nH]c2c1C1(CCCCC1)Cc1ccccc1-2 | inconclusive: 35.5 µM [inhibitor, partial curve] |
| O=S(=O)(NC12CC3CC(CC(C3)C1)C2)c1ccc(F)cc1 | inconclusive: 11.2 µM [inhibitor, partial curve] |
| CC(C)CCn1c(Sc2nc3ccccc3s2)nc2c1c(=O)[nH]c(=O)n2C | inconclusive: 22.4 µM [inhibitor, partial curve] |
| CC(C)(C)c1ccc(C(=O)CS(=O)(=O)c2ccccc2)cc1 | inconclusive: 39.8 µM [inhibitor, partial curve] |
| Cc1ccc(O)c(C=Nc2cc(C)ccc2O)c1 | inactive |
| COc1cc(NC(=O)c2cc3nc(-c4ccccc4)cc(-c4ccccc4)n3n2)cc(OC)c1OC | inactive |
| Cc1cc(=O)oc2cc(Oc3ncccc3[N+](=O)[O-])ccc12 | inactive |
| O=c1cc(CSc2nc3ccccc3[nH]2)c2ccccc2[nH]1 | inconclusive: 44.7 µM [inhibitor, single point] |
| O=C(c1ccc([N+](=O)[O-])cc1)N1CCSC1c1cccc(Cl)c1 (stereo not given) | inconclusive: 22.4 µM [inhibitor, single point] |
| O=C(COC(=O)/C=C/c1ccccc1Cl)NCc1ccco1 | inconclusive: 39.8 µM [inhibitor, single point] |
| CCc1cc(-c2[nH]ncc2-c2ccc([N+](=O)[O-])cc2)c(O)cc1OC | inconclusive: 20 µM [inhibitor, partial curve] |
| CC(C)(C)c1nnc2sc(SCCN3C(=O)c4ccccc4C3=O)nn2c1=O | inconclusive: 39.8 µM [inhibitor, partial curve] |
| O=C(NCC1(c2ccccc2)CCCC1)C(=O)Nc1cccc(Br)c1 | inactive |
| Cn1nnnc1SCCCNCc1cccc(OCc2ccc(F)cc2)c1 | inconclusive: 35.5 µM [inhibitor, partial curve] |
| CCN(CC)C(=S)SCC(=O)c1ccc(F)cc1 | inconclusive: 8.91 µM [inhibitor, partial curve] |
| O=C(CSc1ccc(F)cc1)NC12CC3CC(CC(C3)C1)C2 | inconclusive: 10 µM [inhibitor, partial curve] |
| CCOC(=O)N1CCN(C(=O)c2ccc(Cn3c(=S)[nH]c4ccc(Br)cc4c3=O)cc2)CC1 | inactive |
| Nc1nc(-c2cccs2)c(-c2cccs2)s1 | inactive |
| COc1ccc(NC(=O)CS(=O)CC(=O)NC2CCCc3ccccc32)cc1 (stereo not given) | inconclusive: 17.8 µM [inhibitor, partial curve] |
| Cc1ccc(-n2ncc3c(NCc4ccccn4)ncnc32)c(C)c1 | inconclusive: 20 µM [inhibitor, partial curve] |
| C=CCN(CC=C)C(=S)Nc1cc(Cl)ccc1OC | inconclusive: 14.1 µM [inhibitor, partial curve] |
| CC(C)OC(=O)C(C)Oc1ccc(C(=O)NCCc2ccccc2)cc1 (stereo not given) | inconclusive: 20 µM [inhibitor, partial curve] |
